Measured values: the supplement of paper PMC11417369
This is one part of the list.

System: PfSIP2 AP2 domain 1 (GST-tagged)
Experiment: gcPBM binding intensity (ln(normalized median fluorescence intensity)); higher = stronger DNA binding
Method in brief: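 Binding intensity is defined as the maximum Masliner-normalised natural-log median intensity across replicate spots for either probe orientation. It was measured on an Agilent 4 × 180k array of primer-extended double-stranded 36-bp intergenic genomic probes and negative controls, to which GST-tagged P. falciparum DNA-binding domains made in E. coli were applied for 1 h in 1× PBS with 1% milk, 0.2 mg/ml BSA, 0.5% salmon testes DNA and 0.03% Triton X-100. Detection was by Alexa488 anti-GST antibody and scanning at 488 nm.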

Sequence | gcPBM binding intensity (ln)
TTTTTTTAAACTGAAAGTACTTATTCCAAGAAAATA [XGTACX_site50] | 6.93
ATATATATATCAACAACACACGATTAACTAAAAAAA [CACACA_site302] | 8.1
ATAATGACTAAATTTAAACACACAAGGGGAGTTTAC [CACACA_site8209] | 6.75
GCATAAGAAATAAATAGTACACACATAGACACACAC [XGTACX_site3095] | 8.19
TATATATATATATACACACACATATATATATATATA [CACACA_site1346] | 9.26
ATAAGATATGTATATACACACATTTATTTACATATA [CACACA_site3263] | 6.95
AAAACAAATGAGTACACACACATAAAAGTTGAAAAT [CACACA_site6238] | 6.98
CGCACAAAAATATACACACACACATCTATATTTATT [CACACA_site7675] | 7.22
TACCCATATTAATATGTGCGCATATAAAAGTCAAAC | 8.01
ATTTTTTTTATTTTTTCAATATATATATATATATAT [CACACA_negctrl_site1444] | 9.48
GAAATAGAAATAAAATAGGCATACAATAGAACTAAG [TGCATGCA_negctrl_site537] | 6.94
TTATATATATATAATACACACATAATAATATATTTA [CACACA_site3038] | 7.09
ATATATGAGCAAAAATATATAAGATAACACATAAAT [CACACA_negctrl_site167] | 7.04
TTATATATATATTATAGTACATATATAATATAGTAA [XGTACX_site6869] | 6.94
TCTCTATAAATAAATACATGCATATAATAAAGAATT [TGCATGCA_site710] | 6.92
TATTTAAAAATATATACACACATTTTATATTATTAT [CACACA_site781] | 6.88
CCTTATTATTATTTTACACACGTCCTAATAAGAGGA [CACACA_site1319] | 7.2
AAAAACAAAAAAGAAGCACACATATATATATATATA [CACACA_site8779] | 9.66
AATATATAAATAAATACACACATAAAATAGAAATAT [CACACA_site1663] | 7.25
TTTATCTGATATATTACACACAAAAAAAAAAAAAAA [CACACA_site7637] | 6.98
AATATTATATATATGGGTACTAATTCCTTTAATTTC [XGTACX_site102] | 6.72
TATTTTACAAAATAAGGTACGTAAATATATGGTAGG [XGTACX_site2133] | 7.43

Sequence | gcPBM binding intensity (ln)
AAATATCTTTTATATTGTACATATTCCTTATGTGGA [XGTACX_site7638] | 6.94
TAATAAATAAAATATGCACACAAATATAGGAAACAA [CACACA_site8820] | 9.17
ATATATATATATATATGTACATAATAATATATATTA [XGTACX_site111] | 9.6
TAAAAGGTGTATATAATACACACGTGGGATTAGAAT [CACACA_site610] | 6.97
AAAAAATATACATATACACACATATGTATATAGAAT [CACACA_site2170] | 6.93
TATATAAAGCATTGTAGTACTACCAATATTTTTTTT [XGTACX_site3523] | 7.09
AAAATAAACAATGAACAATAAACAATGAACAATGAA [CACACA_negctrl_site1194] | 6.91
AAAATATTATAAATTTGTACTTATAAATATTGTATA [XGTACX_site8165] | 6.88
ATATGTTATATGTAATGTACTTTTGATGTATATATT [XGTACX_site8615] | 7.05
CGTTATATATATAAAAGTACAAAAATTAAACATTCC [XGTACX_site4568] | 7
ATATGTAAATAAATATGTACTCATTTATTATTTTAT [XGTACX_site8748] | 7.06
ATATGTATATTTTTTTGTACGTATTTATGTGTGTGT [XGTACX_site2093] | 7.5
ATATATACAAGTATTTTTTTTTCAAACATTATTTTT [CACACA_negctrl_site1808] | 7.09
ATATATATAATATAATGTACGTATAATAATATGAGA [XGTACX_site2282] | 7.71
TAATTCGCAAAAGAAAGAAATTAAGAAAAAGAAAAA [XGTACX_negctrl_site614] | 6.62
TTCAATAGTAAGTATACACACATATATATATATAAA [CACACA_site2687] | 7.17
TTTCTTTTTTTTTTTTCATTGATCCATTTATGATTA [TGCATGCA_negctrl_site225] | 6.76
TTATAGGTTCTATACATATATTTATATATGTACAGA [CACACA_negctrl_site60] | 6.9
TTTTTAAAAATATACACACACAGATATTATAGATAT [CACACA_site6511] | 7.01
CAAGCTATGTATTCTACACACACATACACCCATATA [CACACA_site9133] | 7.03
AGTATACATATATATACACACACACCGATATATATA [CACACA_site8357] | 7.33
TAAAAAAAATAAACGTGTACATAAAAATGAATATGT [XGTACX_site119] | 7.35
